One molecule from paper PMC13080237, “Functional divergence of protein kinase A regulatory subunit Iβ variants: the importance of N3A motifs in PKA regulation” (The Febs Journal, 2025) can be followed below.

In this experiment the target is FSS-Cα (human PKA catalytic subunit α with N-terminal FSS-tag) (human). In words: SPR; Biacore T200, multicycle; FSS-Cα captured through its N-terminal FSS-tag on Strep-Tactin XT on a CM5 chip; RIβ variants as analytes, 33 nM to 0.14 nM in 3-fold dilutions, 30 uL/min, 25 °C; 10 mM HEPES pH 7.4, 150 mM NaCl, 0.05% P20, 10 mM MgCl2, 1 mM ATP; no cAMP; 1:1 Langmuir global fit. As to conditions: both partners purified. (In SPR one partner is held on a chip, and binding of the other changes the refractive index at the surface.)

B1: His-RIβ R268 (human PKA regulatory subunit Iβ, R268 variant) (natural protein)
chain: not shown
With B1, the Kd – broadly, the concentration at which binding is half-saturated – worked out at 0.16 nM; the off-rate (koff) (in general, the rate constant with which the complex falls apart) worked out at 0.00036 s⁻¹; the kon – broadly, the second-order rate constant of association – came to 2.2e+06 M⁻¹ s⁻¹.
